From PubChem BioAssay (Tox21)
“And” between values parts separate entries of the source, which are not always exact repeats. Identical values can stand only once. The inconclusive results got no clear call from the source; some entries with a clear call stand among them for comparison. Potencies beside an inconclusive call are fits to weak or partial responses and may not hold up. The source made the active and inactive calls. Unless noted, calls come from the whole dose curve.

Legend:
[1] = molecular target: Peroxisome proliferator-activated receptor gamma (Homo sapiens) (UniProt P37231); assay: qHTS assay to identify small molecule agonists of the peroxisome proliferator-activated receptor gamma (PPARg) signaling pathway (AID 743094; active = well fitted activation curve with a large enough effect in the signal ratio in the repeat runs, not every such curve was filed as active; inconclusive = weak or mixed curves, or effect the other way; inactive = no such curve, though single readings can be large or run the other way; the % refers to the signal ratio; for activation: % is set by controls: 0 for no effect and ±100 for the full control effect); settings: HEK293H PPARg-UAS-bla, beta-lactamase FRET ratio, 17 h; activation: at 57 µM (top of the series) unless noted
Sequence of UniProt P37231 (P37231 whole entry, looked up): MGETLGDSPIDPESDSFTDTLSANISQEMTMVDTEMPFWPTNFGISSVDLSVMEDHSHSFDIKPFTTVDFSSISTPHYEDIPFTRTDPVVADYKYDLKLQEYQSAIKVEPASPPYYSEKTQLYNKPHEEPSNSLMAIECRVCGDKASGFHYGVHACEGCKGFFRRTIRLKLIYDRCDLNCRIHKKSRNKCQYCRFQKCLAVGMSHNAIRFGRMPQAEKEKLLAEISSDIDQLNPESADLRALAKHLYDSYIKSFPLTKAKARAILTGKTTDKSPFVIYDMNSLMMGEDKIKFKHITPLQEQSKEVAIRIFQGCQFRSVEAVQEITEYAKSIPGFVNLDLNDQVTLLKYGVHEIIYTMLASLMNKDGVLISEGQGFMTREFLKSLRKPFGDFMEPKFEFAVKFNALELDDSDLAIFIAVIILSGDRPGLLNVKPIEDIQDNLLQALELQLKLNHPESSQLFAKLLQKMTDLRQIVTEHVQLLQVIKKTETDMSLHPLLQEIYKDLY
How it was run: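 Following 5 h plating at 37C, PPARg-bla HEK293H cells receive compound or DMSO for 17 h; fluorescence intensity is recorded after LiveBLAzer B/G loading for 1 h at room temperature.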

[2] = molecular target: Peroxisome proliferator-activated receptor gamma (Homo sapiens) (UniProt P37231); assay: qHTS assay to identify small molecule antagonists of the peroxisome proliferator-activated receptor gamma (PPARg) signaling pathway (AID 743191); settings: HEK293H PPARg-UAS-bla, beta-lactamase ratio, antagonist, 17 h; ratio activity, negative = inhibition: at 62.6 µM (top of the series) unless noted; note: nearly all actives have a fitted effect of over 30% in size; for ratio activity, negative = inhibition: % is set by controls: 0 for no effect and ±100 for the full control effect
How it was run: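 GeneBLAzer PPARg UAS-bla HEK293H cells carrying a UAS-driven beta-lactamase reporter were plated at 3000 cells/well, preincubated 5 h at 37C, then given compound for 17 h at 37C; LiveBLAzer B/G FRET substrate was read after 1 h at room temperature.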

[3] = qHTS assay for small molecule agonists of the antioxidant response element (ARE) signaling pathway (AID 743202; active = well fitted activation curve with a large enough effect in the signal ratio in the repeat runs, not every such curve was filed as active; inconclusive = weak or mixed curves, or effect the other way; inactive = no such curve, though single readings can be large or run the other way; the % refers to the signal ratio); settings: HepG2 ARE-bla reporter, beta-lactamase FRET, 16 h; activation: at 73.3 µM (top of the series) unless noted
How it was run: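 Compounds delivered in DMSO to ARE-bla HepG2 cells (2,000 cells/well, pre-incubated 5 h) and left 16 h at 37 C. LiveBLAzer B/G FRET substrate then added for 2 h at RT before fluorescence reading.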

[4] = qHTS assay for small molecule activators of the heat shock response signaling pathway (AID 743210; active = well fitted activation curve with a large enough effect in the signal ratio in the repeat runs, with a control signal flat, not every such curve was filed as active; inconclusive = weak or mixed curves; the % refers to the signal ratio); settings: HeLa HSE-bla reporter, beta-lactamase ratio, 5 h; activation: at 62.6 µM (top of the series) unless noted
How it was run: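 Reporter gene assay: HeLa cells stably bearing an HSE-bla construct, compound treatment 5 h at 37 C, LiveBLAzer substrate 2.5 h at RT, fluorescence intensity.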

[5] = qHTS assay to identify small molecule agonists of the peroxisome proliferator-activated receptor delta (PPARd) signaling pathway - cell viability counter screen (AID 743211; active = well fitted curve in the direction sought with a large enough effect in the repeat runs; inconclusive = weak or mixed curves; inactive = no such curve, though single readings can be large; an effect the other way counts as inactive or inconclusive; note: nearly all actives have a fitted effect of over 55% in size); settings: PPARd-bla HEK293H viability, CellTiter-Glo luminescence, 17 h; activity change, negative = cytotoxicity: at 62.6 µM (top of the series) unless noted
How it was run: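 Multiplexed format: after the 2 h room-temperature LiveBLAzer B/G FRET step, CellTiter-Glo was added to the same wells. Luminescence after 30 min gave cell viability; compound exposure was 17 h at 37C.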

[6] = qHTS assay to identify small molecule antagonists of the peroxisome proliferator-activated receptor delta (PPARd) signaling pathway - cell viability counter screen (AID 743213; active = well fitted curve in the direction sought with a large enough effect in the repeat runs; inconclusive = weak or mixed curves; inactive = no such curve, though single readings can be large; an effect the other way counts as inactive or inconclusive; note: nearly all actives have a fitted effect of over 50% in size); settings: PPARd-bla HEK293H viability, CellTiter-Glo luminescence, 17 h; viability change, negative = cytotoxic: at 62 µM (top of the series) unless noted
How it was run: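 HEK293H cells with the PPARd UAS-bla reporter, co-treated 17 h at 37 C with compounds and L165041 (300 nM final), were lysed with CellTiter-Glo. Luminescence indicated viable cell content.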

[7] = molecular target: Peroxisome proliferator-activated receptor delta (Homo sapiens) (UniProt Q03181); assay: qHTS assay to identify small molecule antagonists of the peroxisome proliferator-activated receptor delta (PPARd) signaling pathway (AID 743215; active = well fitted inhibition curve with a large enough effect in the signal ratio in the repeat runs, not every such curve was filed as active; inconclusive = weak or mixed curves, or effect the other way; inactive = no such curve, though single readings can be large or run the other way; the % refers to the signal ratio;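 note: cells stimulated with agonist L165041 at 300 nM final during compound exposure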; for ratio activity, negative = inhibition: % is set by controls: 0 for no effect and ±100 for the full control effect); settings: HEK293H PPARd-UAS-bla, beta-lactamase FRET ratio, antagonist, 17 h; ratio activity, negative = inhibition: at 62 µM (top of the series) unless noted
Sequence of UniProt Q03181 (Q03181 whole entry, looked up): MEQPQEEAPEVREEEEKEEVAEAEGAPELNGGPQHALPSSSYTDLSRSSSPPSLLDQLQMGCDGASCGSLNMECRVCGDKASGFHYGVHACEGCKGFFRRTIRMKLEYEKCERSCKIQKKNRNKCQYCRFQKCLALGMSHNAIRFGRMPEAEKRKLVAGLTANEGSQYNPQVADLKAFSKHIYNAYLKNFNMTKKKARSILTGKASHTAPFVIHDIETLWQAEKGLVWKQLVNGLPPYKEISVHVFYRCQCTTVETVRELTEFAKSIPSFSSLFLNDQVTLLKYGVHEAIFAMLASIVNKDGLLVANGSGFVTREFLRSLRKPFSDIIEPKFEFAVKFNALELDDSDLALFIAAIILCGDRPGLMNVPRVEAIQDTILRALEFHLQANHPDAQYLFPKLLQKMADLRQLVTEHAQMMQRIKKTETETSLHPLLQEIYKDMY
How it was run: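 With L165041 present at 300 nM final, compounds were incubated 17 h at 37 C on PPARd UAS-bla HEK293H cells. A FRET-based beta-lactamase substrate was then applied for 2 h at room temperature and fluorescence intensity recorded.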

[8] = molecular target: Vitamin D3 receptor (Homo sapiens) (UniProt P11473); assay: qHTS assay to identify small molecule agonists of the vitamin D receptor (VDR) signaling pathway (AID 743222); settings: HEK293T VDR-UAS-bla, beta-lactamase FRET ratio, 16 h; activation: at 63.5 µM (top of the series) unless noted; for activation: % is set by controls: 0 for no effect and ±100 for the full control effect
Sequence of UniProt P11473 (P11473 whole entry, looked up): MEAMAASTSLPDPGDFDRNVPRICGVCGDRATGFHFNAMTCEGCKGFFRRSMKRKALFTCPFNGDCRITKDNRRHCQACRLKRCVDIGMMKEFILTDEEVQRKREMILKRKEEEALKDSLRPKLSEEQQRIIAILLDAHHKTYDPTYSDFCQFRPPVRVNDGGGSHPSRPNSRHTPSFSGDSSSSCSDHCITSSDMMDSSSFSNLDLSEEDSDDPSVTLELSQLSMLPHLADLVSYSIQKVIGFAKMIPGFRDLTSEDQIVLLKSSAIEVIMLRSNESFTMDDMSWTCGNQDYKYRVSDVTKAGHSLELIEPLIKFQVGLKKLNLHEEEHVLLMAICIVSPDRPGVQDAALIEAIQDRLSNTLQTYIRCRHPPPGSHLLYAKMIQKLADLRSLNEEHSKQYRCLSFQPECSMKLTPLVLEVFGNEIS
How it was run: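 VDR-bla cells were seeded, left 4 h, treated with compounds in DMSO for 16 h, incubated 2 h at RT with B/G FRET substrate, and read for fluorescence.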

[9] = molecular target: Peroxisome proliferator-activated receptor delta (Homo sapiens) (UniProt Q03181); assay: qHTS assay to identify small molecule agonists of the peroxisome proliferator-activated receptor delta (PPARd) signaling pathway (AID 743212); settings: HEK293H PPARd-UAS-bla, beta-lactamase FRET ratio, 17 h; activation: at 62.6 µM (top of the series) unless noted
How it was run: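 A PPARd-bla HEK293H line with beta-lactamase under an Upstream Activator Sequence is treated with compounds at 37 C. Substrate loading for 2 h at room temperature precedes the fluorescence measurement.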

[10] = qHTS assay to identify small molecule agonists of the vitamin D receptor (VDR) signaling pathway - cell viability counter screen (AID 743224; active = well fitted curve in the direction sought with a large enough effect in the repeat runs; inconclusive = weak or mixed curves; inactive = no such curve, though single readings can be large; an effect the other way counts as inactive or inconclusive; note: nearly all actives have a fitted effect of over 50% in size); settings: VDR-bla HEK293T viability, CellTiter-Glo luminescence, 16 h; activity change, negative = cytotoxicity: at 62.6 µM (top of the series)
How it was run: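 Here cell health was gauged by luminescent ATP detection (CellTiter-Glo, 30 min RT) in VDR-bla cells that had been incubated with test compounds for 16 h at 37C and 5% CO2.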

[11] = qHTS assay to identify small molecule agonists of the farnesoid-X-receptor (FXR) signaling pathway - cell viability counter screen (AID 743218; active = well fitted curve in the direction sought with a large enough effect in the repeat runs; inconclusive = weak or mixed curves; inactive = no such curve, though single readings can be large; an effect the other way counts as inactive or inconclusive; note: nearly all actives have a fitted effect of over 45% in size); settings: FXR-bla HEK293T viability, CellTiter-Glo luminescence, 16 h; viability change, negative = cytotoxic: at 62.6 µM (top of the series) unless noted
How it was run: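 After 16 h at 37 C with test compounds, FXR-bla HEK 293T cells were given LiveBLAzer B/G substrate for 2 h at RT and then CellTiter-Glo; luminescence was taken after 30 min.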

[12] = qHTS assay for small molecule activators of the heat shock response signaling pathway - cell viability counter screen (AID 743209; active = well fitted curve in the direction sought with a large enough effect in the repeat runs; inconclusive = weak or mixed curves; inactive = no such curve, though single readings can be large; an effect the other way counts as inactive or inconclusive; note: nearly all actives have a fitted effect of over 50% in size); settings: HSE-bla HeLa viability, CellTiter-Glo luminescence, 5 h; activity change, negative = cytotoxicity: at 62.6 µM (top of the series) unless noted
How it was run: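 Counter screen for cytotoxicity in HeLa HSE-bla reporter cells. Treatment was 5 h at 37 C; viability was detected by luminescent ATP assay (CellTiter-Glo) in the same wells as the beta-lactamase read.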

[13] = molecular target: Bile acid receptor (Homo sapiens) (UniProt Q96RI1); assay: qHTS assay to identify small molecule antagonists of the farnesoid-X-receptor (FXR) signaling pathway (AID 743217; active = well fitted inhibition curve with a large enough effect in the signal ratio in the repeat runs, not every such curve was filed as active; inconclusive = weak or mixed curves, or effect the other way; inactive = no such curve, though single readings can be large or run the other way; the % refers to the signal ratio); settings: HEK293T FXR-UAS-bla, beta-lactamase ratio, CDCA-stimulated, 16 h; activity change, negative = inhibition: at 62.6 µM (top of the series) unless noted
Sequence of UniProt Q96RI1 (Q96RI1 whole entry, looked up): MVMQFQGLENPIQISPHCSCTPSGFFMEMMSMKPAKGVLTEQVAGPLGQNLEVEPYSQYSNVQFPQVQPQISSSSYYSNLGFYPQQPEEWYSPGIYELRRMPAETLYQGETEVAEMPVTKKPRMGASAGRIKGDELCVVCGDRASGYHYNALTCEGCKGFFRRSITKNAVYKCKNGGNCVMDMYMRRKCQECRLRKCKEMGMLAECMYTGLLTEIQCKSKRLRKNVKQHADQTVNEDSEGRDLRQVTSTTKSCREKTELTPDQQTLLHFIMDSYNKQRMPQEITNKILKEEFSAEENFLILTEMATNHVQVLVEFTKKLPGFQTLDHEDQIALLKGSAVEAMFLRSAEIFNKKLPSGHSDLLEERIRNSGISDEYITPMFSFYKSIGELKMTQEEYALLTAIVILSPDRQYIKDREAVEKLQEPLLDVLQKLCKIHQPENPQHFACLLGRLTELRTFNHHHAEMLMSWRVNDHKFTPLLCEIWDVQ
How it was run: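 In this cell-based antagonist screen, inhibition of CDCA-driven (50 uM final) UAS-beta-lactamase expression in HEK 293T cells was measured by FRET fluorescence following 16 h compound exposure at 37 °C.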

[14] = molecular target: Bile acid receptor (Homo sapiens) (UniProt Q96RI1); assay: qHTS assay to identify small molecule agonists of the farnesoid-X-receptor (FXR) signaling pathway (AID 743220; active = well fitted activation curve with a large enough effect in the signal ratio in the repeat runs, not every such curve was filed as active; inconclusive = weak or mixed curves, or effect the other way; the % refers to the signal ratio); settings: HEK293T FXR-UAS-bla, beta-lactamase FRET ratio, 16 h; activation: at 62.6 µM (top of the series) unless noted
How it was run: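 Beta-lactamase reporter under UAS control in GeneBLAzer FXR HEK 293T cells (5000/well) measured with LiveBLAzer FRET substrate after 2 h at room temperature. Compound exposure lasted 16 h at 37C.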

[15] = qHTS assay to identify small molecule antagonists of the farnesoid-X-receptor (FXR) signaling pathway - cell viability counter screen (AID 743221; active = well fitted cell-killing curve with a large enough effect in the repeat runs, not every such curve was filed as active; inconclusive = weak or mixed curves, or effect the other way; inactive = no such curve, though single readings can be large or run the other way; note: nearly all actives have a fitted effect of over 50% in size); settings: FXR-bla HEK293T viability, CellTiter-Glo luminescence, 16 h; activity change, negative = cytotoxicity: at 62.6 µM (top of the series) unless noted
How it was run: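 CellTiter-Glo, 30 min RT, luminescence; same wells as the LiveBLAzer FRET read. Cells: FXR-UAS-bla HEK 293T. Treatment: compound with chenodeoxycholic acid 50 uM final, 16 h at 37 C.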

[16] = molecular target: Vitamin D3 receptor (Homo sapiens) (UniProt P11473); assay: qHTS assay to identify small molecule antagonists of the vitamin D receptor (VDR) signaling pathway (AID 743223; active = well fitted inhibition curve with a large enough effect in the signal ratio in the repeat runs, not every such curve was filed as active; inconclusive = weak or mixed curves, or effect the other way; inactive = no such curve, though single readings can be large or run the other way; the % refers to the signal ratio); settings: VDR-UAS-bla HEK293T, beta-lactamase FRET ratio, 16 h
How it was run: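 After VDR-bla cells are plated and left 4 h at 37C, DMSO-dissolved compounds and 3 nM (final) calcitriol agonist are added. Incubation continues 16 h at 37C; FRET beta-lactamase substrate then develops 2 h at room temperature.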

[17] = activity change, negative = inhibition: at 61 µM (top of the series) unless noted
Potency is the fitted concentration of half-maximal effect; tags give direction and shape of the fitted curve or compound fluorescence and quenching.

COc1ccccc1N1CCN(CC(O)COc2cccc3ccccc23)CC1 (configuration not stated)
inactive: Potency [1] | Potency [7] | Potency [8]
active: Potency [5] 26.6 µM | Potency [6] 29.8 µM
inconclusive: ratio activity, negative = inhibition [2] -0.617% | Potency [3] 9.44 µM [falling, partial curve] | Potency [4] 28.2 µM

Nc1ccc2cc3ccccc3cc2c1
inconclusive: Potency [1] 55.9 µM [fluorescent, partial curve] and 49 µM [fluorescent] | Potency [2] 15.8 µM [fluorescent, partial curve] and 30.9 µM [fluorescent, partial curve] | Potency [3] 17.5 µM [rising, partial curve] and 34.4 µM [rising, partial curve] | Potency [4] 23.1 µM [fluorescent] and 21.9 µM [fluorescent, partial curve] | Potency [9] 17.7 µM [rising, partial curve] and 49 µM [rising, partial curve] | Potency [7] 12.5 µM [fluorescent] and 49 µM [activator] | Potency [8] 8.86 µM [fluorescent, partial curve] and 49 µM [fluorescent] | Potency [10] 13.8 µM [cytotoxic, partial curve, poor fit]

CCCCCCNC(=O)n1cc(F)c(=O)[nH]c1=O
inconclusive: activation [1] 11.2% | Potency [2] 23.7 µM [activator] | Potency [3] 15 µM [rising, partial curve, poor fit] | Potency [11] 23.7 µM [cytotoxic, partial curve]
inactive: Potency [7] | Potency [8]

O=C(Nc1cccc(Cl)c1)OCC#CCCl
inconclusive: Potency [1] 61.6 µM [activator, single point] | Potency [2] 4.36 µM [rising, full curve] | Potency [3] 54.5 µM [falling, partial curve] | Potency [4] 26.5 µM | Potency [9] 15.5 µM [rising, partial curve] | Potency [6] 54.9 µM [cytotoxic, single point] | Potency [13] 49 µM [rising, partial curve] | Potency [11] 54.9 µM [cytotoxic, single point] | Potency [14] 0.616 µM [rising, full curve, poor fit] | Potency [15] 24.5 µM [falling, partial curve, poor fit] | Potency [8] 17.4 µM | Potency [16, 17] 19.5 µM
active: Potency [12] 19.5 µM | Potency [7] 11 µM

CCOC(=O)c1ccc(C#Cc2ccc3c(c2)C(C)(C)CCS3)nc1
inactive: Potency [10]
active: Potency [3] 26.6 µM
inconclusive: Potency [1] 19 µM [activator, partial curve, poor fit] | Potency [2] 21.1 µM [fluorescent, partial curve] | Potency [5] 29.8 µM [cytotoxic, partial curve, poor fit] | Potency [9] 29.8 µM | Potency [7] 29.8 µM [fluorescent] | Potency [13] 29.8 µM | Potency [14] 18.8 µM [activator, partial curve] | Potency [8] 11.9 µM [fluorescent, partial curve] | activity change, negative = inhibition [16, 17] -4.37%

NC(N)=S
inactive: Potency [1] | Potency [3] | Potency [5] | Potency [8]
inconclusive: ratio activity, negative = inhibition [2] -1.04%

CCCCC1C(=O)N(c2ccccc2)N(c2ccc(O)cc2)C1=O (configuration not stated)
active: Potency [3] 29.8 µM
inconclusive: Potency [1] 10.2 µM [activator] | ratio activity, negative = inhibition [2] 2.83% | Potency [12] 33.5 µM [cytotoxic] | Potency [5] 33.5 µM [cytotoxic, single point] | Potency [9] 33.5 µM [single point] | Potency [13] 33.5 µM [single point] | Potency [14] 29.8 µM [rising, partial curve, poor fit] | Potency [15] 33.5 µM | activation [8] -14.8% | Potency [16, 17] 26.8 µM

C[C@]12CC[C@@H]3c4ccc(O)cc4C[C@@H](CCCCCCCCCS(=O)CCCC(F)(F)C(F)(F)F)[C@H]3[C@@H]1CC[C@@H]2O (some centres not stated)
inactive: Potency [2] | activity change, negative = inhibition ([16]; at 61 µM (top of the series)) 5.98%
inconclusive: activation [1] -14.2% | Potency [3] 48.5 µM [rising, partial curve, poor fit] | activation [3] 5.5% | Potency [4] 48.9 µM [rising, partial curve, poor fit] | Potency [5] 616 nM [cytotoxic, full curve] and 26.6 µM [cytotoxic, partial curve] | Potency [9] 11.9 µM [rising, partial curve, poor fit] | Potency [6] 19.5 µM [cytotoxic] and 5.96 µM [cytotoxic, full curve] | activation [14] 12.4% | activation [8] -9.27% | activity change, negative = inhibition [16, 17] -7.36% | Potency [10] 0.275 µM [cytotoxic, full curve, poor fit]

C1C[C@@H]2[C@H]3CC[C@H](C3)[C@@H]2C1
inactive: Potency [1] | Potency [2] | Potency [3] | Potency [5] | Potency [16, 17]
inconclusive: Potency [9] 24.6 µM [rising, single point]
